Experimental data from the supplement of paper PMC8728848.
The other results are listed elsewhere or left out.

Tests used:
Experiment in all cases: glycan array binding signal (z-score within array); higher = stronger binding
Conditions in all cases: glycan notation: IUPAC condensed, linker removed
[1] = biological target: GlcNAc(b1-3)Gal(b1-4)GlcNAc(b1-3)Gal(b1-4)GlcNAc(b1-3)GalNAc
In short: (§1)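 Arrays were curated from the Consortium for Functional Glycomics database, 3228 in total, and kept only where the protein sequence was available. Binding is expressed as a within-array Z-score. This score was averaged across arrays of the same protein sequence at different concentrations or buffers and across linkers, and negative values can be read as non-binding.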

[2] = biological target: GlcNAc(b1-3)Gal(b1-4)GlcNAc(b1-3)GalNAc
In short: as §1

[3] = biological target: GlcNAc(b1-3)Gal(b1-4)GlcNAc(b1-3)[GlcNAc(b1-3)Gal(b1-4)GlcNAc(b1-3)]GalNAc
In short: as §1

[4] = biological target: GlcNAc(b1-3)Gal(b1-4)GlcNAc(b1-6)[Gal(b1-3)]GalNAc
In short: as §1

[5] = biological target: GlcNAc(b1-3)Gal(b1-4)GlcNAc(b1-6)[GlcNAc(b1-3)Gal(b1-3)]GalNAc
In short: as §1

[6] = biological target: GlcNAc(b1-3)Gal(b1-4)GlcNAc(b1-6)[GlcNAc(b1-3)]Gal(b1-4)GlcNAc
In short: as §1

GlcNAc(b1-3)GalNAc = biological target: GlcNAc(b1-3)GalNAc
In short: as §1

GlcNAc(b1-3)Man = biological target: GlcNAc(b1-3)Man
In short: as §1

[7] = biological target: GlcNAc(b1-3)[GlcNAc(b1-4)][GlcNAc(b1-6)]GlcNAc
In short: as §1

[8] = biological target: GlcNAc(b1-3)[GlcNAc(b1-6)]Gal(b1-4)GlcNAc
In short: as §1

[9] = biological target: GlcNAc(b1-3)[GlcNAc(b1-6)]GalNAc
In short: as §1

[10] = biological target: GlcNAc(b1-4)Gal(b1-4)GlcNAc
In short: as §1

GlcNAc(b1-4)GlcNAc = biological target: GlcNAc(b1-4)GlcNAc
In short: as §1

[11] = biological target: GlcNAc(b1-4)GlcNAc(b1-4)GlcNAc
In short: as §1

[12] = biological target: GlcNAc(b1-4)GlcNAc(b1-4)GlcNAc(b1-4)GlcNAc(b1-4)GlcNAc
In short: as §1

[13] = biological target: GlcNAc(b1-4)GlcNAc(b1-4)GlcNAc(b1-4)GlcNAc(b1-4)GlcNAc(b1-4)GlcNAc
In short: as §1

[14] = biological target: GlcNAc(b1-4)[GlcNAc(b1-6)]GalNAc
In short: as §1

[15] = biological target: GlcNAc(b1-6)Gal(b1-4)GlcNAc
In short: as §1

GlcNAc(b1-6)GalNAc = biological target: GlcNAc(b1-6)GalNAc
In short: as §1

[16] = biological target: GlcNAc6S(b1-3)Gal(b1-4)GlcNAc
In short: as §1

Kdn(a2-3)Gal(b1-3)GalNAc = biological target: Kdn(a2-3)Gal(b1-3)GalNAc
In short: as §1

Kdn(a2-3)Gal(b1-3)GlcNAc = biological target: Kdn(a2-3)Gal(b1-3)GlcNAc
In short: as §1

Kdn(a2-3)Gal(b1-4)Glc = biological target: Kdn(a2-3)Gal(b1-4)Glc
In short: as §1

Kdn(a2-3)Gal(b1-4)GlcNAc = biological target: Kdn(a2-3)Gal(b1-4)GlcNAc
In short: as §1

[17] = biological target: Kdn(a2-3)Gal(b1-4)[Fuc(a1-3)]GlcNAc
In short: as §1

Kdn(a2-6)Gal(b1-4)GlcNAc = biological target: Kdn(a2-6)Gal(b1-4)GlcNAc
In short: as §1

[18] = biological target: Man(a1-2)Man(a1-2)Man(a1-3)Man
In short: as §1

[19] = biological target: Man(a1-2)Man(a1-2)Man(a1-6)[Man(a1-3)]Man
In short: as §1

Man(a1-2)Man(a1-3)Man = biological target: Man(a1-2)Man(a1-3)Man
In short: as §1

[20] = biological target: Man(a1-2)Man(a1-3)[Man(a1-2)Man(a1-6)]Man
In short: as §1

[21] = biological target: Man(a1-2)Man(a1-3)[Man(a1-2)Man(a1-6)]Man(a1-6)[Man(a1-2)Man(a1-2)Man(a1-3)]Man
In short: as §1

[22] = biological target: Man(a1-2)Man(a1-3)[Man(a1-2)Man(a1-6)]Man(a1-6)[Man(a1-2)Man(a1-2)Man(a1-3)]Man(b1-4)GlcNAc(b1-4)GlcNAc
In short: as §1

[23] = biological target: Man(a1-2)Man(a1-3)[Man(a1-6)]Man(a1-6)[Man(a1-2)Man(a1-3)]Man(b1-4)GlcNAc(b1-4)GlcNAc
In short: as §1

[24] = biological target: Man(a1-2)Man(a1-6)[Man(a1-3)]Man(a1-6)[Man(a1-2)Man(a1-2)Man(a1-3)]Man
In short: as §1

[25] = biological target: Man(a1-2)Man(a1-6)[Man(a1-3)]Man(a1-6)[Man(a1-2)Man(a1-2)Man(a1-3)]Man(b1-4)GlcNAc(b1-4)GlcNAc
In short: as §1

Man(a1-3)[Man(a1-6)]Man = biological target: Man(a1-3)[Man(a1-6)]Man
In short: as §1

[26] = biological target: Man(a1-3)[Man(a1-6)]Man(a1-6)[Man(a1-2)Man(a1-3)]Man(b1-4)GlcNAc(b1-4)GlcNAc
In short: as §1

[27] = biological target: Man(a1-3)[Man(a1-6)]Man(a1-6)[Man(a1-3)]Man
In short: as §1

[28] = biological target: Man(a1-3)[Man(a1-6)]Man(a1-6)[Man(a1-3)]Man(b1-4)GlcNAc(b1-4)GlcNAc
In short: as §1

[29] = biological target: Man(a1-3)[Man(a1-6)]Man(b1-4)GlcNAc(b1-4)GlcNAc
In short: as §1

[30] = biological target: Man(a1-3)[Man(a1-6)]Man(b1-4)GlcNAc(b1-4)[Fuc(a1-6)]GlcNAc
In short: as §1

Man(a1-6)Man = biological target: Man(a1-6)Man
In short: as §1

Man(b1-4)GlcNAc = biological target: Man(b1-4)GlcNAc
In short: as §1

MurNAc(b1-4)GlcNAc = biological target: MurNAc(b1-4)GlcNAc
In short: as §1

Neu5Ac(a2-3)Gal = biological target: Neu5Ac(a2-3)Gal
In short: as §1

B1: Langerin K313I (Homo sapiens), Q9UJ71 (protein)
chain: STLNAQIPELKSDLEKASALNTKIRALQGSLENMSKLLKRQNDILQVVSQGWKYFKGNFYYFSLIPKTWYSAEQFCVSRNSHLTSVTSESEQEFLYKTAGGLIYWIGLTKAGMEGDWSWVDDTPFNKVQSARFWIPGEPNNAGNNEHCGNIKAPSLQAWNDAPCDITFLFICKRPYVPSEP
glycan array binding signal (z-score) [1]: -0.285
glycan array binding signal (z-score) [2]: -0.276
glycan array binding signal (z-score) [3]: -0.088
glycan array binding signal (z-score) [4]: -0.29
glycan array binding signal (z-score) [5]: -0.189
glycan array binding signal (z-score) [6]: 10.1
glycan array binding signal (z-score) (GlcNAc(b1-3)GalNAc): 1.68
glycan array binding signal (z-score) (GlcNAc(b1-3)Man): -0.22
glycan array binding signal (z-score) [7]: -0.185
glycan array binding signal (z-score) [8]: 6.18
glycan array binding signal (z-score) [9]: 2.02
glycan array binding signal (z-score) [10]: -0.222
glycan array binding signal (z-score) (GlcNAc(b1-4)GlcNAc): -0.189
glycan array binding signal (z-score) [11]: 1.79
glycan array binding signal (z-score) [12]: -0.289
glycan array binding signal (z-score) [13]: -0.281
glycan array binding signal (z-score) [14]: 0.45
glycan array binding signal (z-score) [15]: -0.119
glycan array binding signal (z-score) (GlcNAc(b1-6)GalNAc): -0.215
glycan array binding signal (z-score) [16]: -0.216
glycan array binding signal (z-score) (Kdn(a2-3)Gal(b1-3)GalNAc): 0.361
glycan array binding signal (z-score) (Kdn(a2-3)Gal(b1-3)GlcNAc): -0.216
glycan array binding signal (z-score) (Kdn(a2-3)Gal(b1-4)Glc): -0.251
glycan array binding signal (z-score) (Kdn(a2-3)Gal(b1-4)GlcNAc): -0.205
glycan array binding signal (z-score) [17]: 0.563
glycan array binding signal (z-score) (Kdn(a2-6)Gal(b1-4)GlcNAc): -0.33
glycan array binding signal (z-score) [18]: -0.234
glycan array binding signal (z-score) [19]: 7.95
glycan array binding signal (z-score) (Man(a1-2)Man(a1-3)Man): -0.261
glycan array binding signal (z-score) [20]: -0.303
glycan array binding signal (z-score) [21]: 3.54
glycan array binding signal (z-score) [22]: -0.289
glycan array binding signal (z-score) [23]: -0.194
glycan array binding signal (z-score) [24]: 2.17
glycan array binding signal (z-score) [25]: 0.146
glycan array binding signal (z-score) (Man(a1-3)[Man(a1-6)]Man): -0.094
glycan array binding signal (z-score) [26]: -0.188
glycan array binding signal (z-score) [27]: -0.173
glycan array binding signal (z-score) [28]: -0.155
glycan array binding signal (z-score) [29]: -0.323
glycan array binding signal (z-score) [30]: -0.036
glycan array binding signal (z-score) (Man(a1-6)Man): -0.121
glycan array binding signal (z-score) (Man(b1-4)GlcNAc): -0.24
glycan array binding signal (z-score) (MurNAc(b1-4)GlcNAc): -0.377
glycan array binding signal (z-score) (Neu5Ac(a2-3)Gal): -0.302
